Test results published in the BET-seq Pho4 binding data (Le et al. 2018).
Some of the results follow. Values were computed here from the reads of four pooled replicates and scatter widely.

Target: T1, Pho4 (S. cerevisiae) (UniProt P07270)
T1 sequence: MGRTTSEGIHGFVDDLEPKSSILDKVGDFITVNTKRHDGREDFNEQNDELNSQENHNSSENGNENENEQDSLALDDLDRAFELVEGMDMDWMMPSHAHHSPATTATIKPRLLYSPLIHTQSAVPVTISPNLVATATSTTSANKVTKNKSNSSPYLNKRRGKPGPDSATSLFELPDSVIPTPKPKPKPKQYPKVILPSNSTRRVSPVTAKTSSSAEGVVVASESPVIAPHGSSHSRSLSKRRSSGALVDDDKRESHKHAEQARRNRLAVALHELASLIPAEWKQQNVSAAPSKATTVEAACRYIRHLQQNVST
Assay: relative binding free energy (BET-seq); higher = weaker binding
Conditions: reference: library average

Relative binding free energy, 0.08 kcal/mol:
GTTAGCACGTGGAAGG, TCCTGCACGTGTTGGT, ACTTGCACGTGTAATT, TAGAACACGTGGTCTG, GGACACACGTGTTGGT

Relative binding free energy, -0.23 kcal/mol:
GTAAGCACGTGGGTTG

Relative binding free energy, 0.11 kcal/mol:
AGAGGCACGTGTGGCC, TTGGGCACGTGAAAGC, TTACACACGTGTAAGG, GTTGGCACGTGACGGT, AAGTCCACGTGGTGGA, GGACGCACGTGATATG

Relative binding free energy, -0.25 kcal/mol:
TTGCGCACGTGGGTGG, CTGAGCACGTGGGGAG

Relative binding free energy, 0.09 kcal/mol:
AGGGTCACGTGCTTGA, AATGTCACGTGTGGCG, TAGTACACGTGAGAGG, TGTTACACGTGCTTTG

Relative binding free energy, -0.15 kcal/mol:
CAGGGCACGTGTTGTA

Relative binding free energy, 0.29 kcal/mol:
GGATTCACGTGTATCG, TCGAGCACGTGAAGGT, TCTTTCACGTGAGGTG, CTAATCACGTGAGGTG, TCAGCCACGTGAGGGT

Relative binding free energy, -0.04 kcal/mol:
TCTTGCACGTGTGTTG, TGGTGCACGTGGACGC, TAGAACACGTGGTGAG, TGTGACACGTGCTGAT

Relative binding free energy, 0.37 kcal/mol:
ATTTTCACGTGTAAGC, GATTTCACGTGTCTGT

Relative binding free energy, 0.13 kcal/mol:
AATGGCACGTGAGGGT

Relative binding free energy, 0.01 kcal/mol:
TGTGTCACGTGGGTCT, AGTATCACGTGTTGGG

Relative binding free energy, -0.17 kcal/mol:
GATGGCACGTGGGCGA, CTTAGCACGTGTTCGT, GGAGGCACGTGGAGGA

Relative binding free energy, 0.25 kcal/mol:
AAAGTCACGTGGGAAA, AGGTTCACGTGCGGGT, AAGTTCACGTGTTAAT, TTTGACACGTGAGTTT

Relative binding free energy, 0.05 kcal/mol:
TGGGCCACGTGAGCGT, GTATACACGTGGGCTT, TCGTACACGTGGTATG, AAAGTCACGTGCGGTA, CACGTCACGTGGTGTT, GGTGGCACGTGATCTA, GGCGTCACGTGGTAAT, GGTCGCACGTGTGGCG

Relative binding free energy, 0.55 kcal/mol:
GGTTTCACGTGAGGTC, TTGATCACGTGAAGAA

Relative binding free energy, 0.27 kcal/mol:
AGTTTCACGTGATAAT, TTTATCACGTGATTAC, ACATTCACGTGGTAGG

Relative binding free energy, 0.21 kcal/mol:
TAGGGCACGTGAGAGA, TTAATCACGTGTTATC, TAAGTCACGTGATTAT, GGTTTCACGTGGGCGT, CTGGACACGTGATATT, TTTGTCACGTGTAAAT

Relative binding free energy, 0.17 kcal/mol:
TGTTTCACGTGGTATG

Relative binding free energy, -0.18 kcal/mol:
GGCAGCACGTGCGGGG, AGTACCACGTGGGGCT, TGTGCCACGTGGTTGC, AAGTACACGTGGGTGT

Relative binding free energy, 0.15 kcal/mol:
GTAAACACGTGTAGGT, TTTTGCACGTGAGCAG, TGGTCCACGTGATGAT, AAGGTCACGTGGCTAG, ATAATCACGTGTGGCA

Relative binding free energy, 0.07 kcal/mol:
TATTCCACGTGTTATA, TATCCCACGTGTGGTT, TTAGTCACGTGCGGTC, TTTAACACGTGTAAAT, TTGGTCACGTGGTCTA, GTACGCACGTGATTGT

Relative binding free energy, 0.47 kcal/mol:
TTTTTCACGTGATAGG, GTGGTCACGTGAGGAT

Relative binding free energy, 0.18 kcal/mol:
CAAGTCACGTGGAGTA, TTAATCACGTGATTAG, GGTAACACGTGGTACT, ATGATCACGTGTTGTG, TGGTACACGTGTCGTC, AAGGTCACGTGTCATG, ACCGTCACGTGTTGGG

Relative binding free energy, 0.24 kcal/mol:
AAGTGCACGTGAAAGG, GTGTTCACGTGCAATT, GGTATCACGTGACAGT, GGGGACACGTGAGCAT, TGATACACGTGAGTGT

Relative binding free energy, -0.26 kcal/mol:
TTTGCCACGTGGGGCG, ACTGGCACGTGGGCGG, AGTGCCACGTGGGGGT

Relative binding free energy, 0.02 kcal/mol:
AGAGGCACGTGATTGT

Relative binding free energy, -0.05 kcal/mol:
GACTGCACGTGTAGGG, GACGGCACGTGGGAAG, TCAGGCACGTGGCTTG

Relative binding free energy, 0.3 kcal/mol:
GTTTACACGTGAGTCT

Relative binding free energy, 0.06 kcal/mol:
AGTGTCACGTGAAAAG, TTGCTCACGTGGGCTG, TAGGACACGTGTGGCT

Relative binding free energy, -0.02 kcal/mol:
TTATGCACGTGTTTGG, CGGTGCACGTGGTAAG, TTGTGCACGTGGTAAA, TGGGGCACGTGCAAAT, GTACGCACGTGCTTGG, TAAGTCACGTGGGAGG

Relative binding free energy, 0.04 kcal/mol:
GTCGACACGTGCGGTG, CTGGACACGTGGTTGG, AGGCACACGTGGTAGT, CGGATCACGTGGTGTA, GTCGGCACGTGTCAGG, TGTGTCACGTGTTTGG, AAGGTCACGTGGTGCA, TTGGTCACGTGGGCTG

Relative binding free energy, -0.1 kcal/mol:
TGAAGCACGTGGAGGG, GCTGGCACGTGGTTTT, CGGAACACGTGGGAGT

Relative binding free energy, 0 kcal/mol:
GAGGACACGTGTGGTA, TATATCACGTGCTATT, TTTGGCACGTGACTGA, ATTCTCACGTGTTTGT, GGTTCCACGTGTGCGT, AGATGCACGTGGATGA

Relative binding free energy, -0.29 kcal/mol:
GCGCGCACGTGGTGTG

Relative binding free energy, 0.23 kcal/mol:
GTAGGCACGTGAGGTT, AAGTGCACGTGAGCGG

Relative binding free energy, 0.1 kcal/mol:
CGTTACACGTGTGGGA, CTGGTCACGTGCATGT, TGAGACACGTGATAGG, CATGTCACGTGCTAGG

Relative binding free energy, 0.16 kcal/mol:
GTAAGCACGTGGAGGT, GATGTCACGTGGTGTC

Relative binding free energy, -0.09 kcal/mol:
GGGTGCACGTGCTTAT, AGTGGCACGTGTATGG, AGCGGCACGTGGTTGC, TTGCGCACGTGTTCTG, TTGGACACGTGGTCGT

Relative binding free energy, -0.11 kcal/mol:
AAGTGCACGTGCGTGA, AGCGACACGTGTTTGG, TGCTGCACGTGGTATT, GTAGACACGTGGGTTT

Relative binding free energy, -0.2 kcal/mol:
CGGGGCACGTGCACGG, AGTGCCACGTGGGGTT

Relative binding free energy, 0.2 kcal/mol:
TGGTTCACGTGGGCTC, TTGCTCACGTGGGTTA, GTTATCACGTGTATGC, GGGGGCACGTGAAGTG

Relative binding free energy, -0.06 kcal/mol:
GTAGGCACGTGCAGTA, TGGAGCACGTGGTTAT, GTTTGCACGTGCTTTG, AGCGTCACGTGGGCGG

Relative binding free energy, 0.43 kcal/mol:
AGTATCACGTGAAGGA, ATGTTCACGTGACGAG

Relative binding free energy, 0.36 kcal/mol:
TATTTCACGTGTGGAA, GTAGCCACGTGAGTGG

Relative binding free energy, 0.28 kcal/mol:
CTTGACACGTGAAGGT

Relative binding free energy, -0.12 kcal/mol:
TGGCACACGTGGCTGG, GTGTGCACGTGGGTAA, GCGGGCACGTGGGAGT, GGGAGCACGTGCGGCT

Relative binding free energy, -0.16 kcal/mol:
TTGGGCACGTGCGCTA, GTAGGCACGTGTCTGG, TGAGGCACGTGCATTT

Relative binding free energy, 0.32 kcal/mol:
ATTTTCACGTGGAATA, AGTTTCACGTGTGGCG, AGTCTCACGTGGTACT, CGTTTCACGTGAATAG

Relative binding free energy, -0.08 kcal/mol:
CTTTACACGTGGGGTT, TGGGACACGTGCCGGG, GGAGGCACGTGGTCAA, ATGGGCACGTGTTGCT

Relative binding free energy, 0.26 kcal/mol:
TTGACCACGTGAAGTG, TGGGACACGTGAGTGC, TTTAGCACGTGAATTG, TTGTTCACGTGCGTTC

Relative binding free energy, -0.13 kcal/mol:
GGATACACGTGGTGCG, GGCGGCACGTGGTGTA, GAGCGCACGTGGTGTG, AGGGGCACGTGATAGC, ATTAGCACGTGTTGTA

Relative binding free energy, -0.07 kcal/mol:
TTATACACGTGTAGTG, GTTGACACGTGGGATT, GTTAGCACGTGGGAAG, TGTTACACGTGTTAAG, GTTCGCACGTGGAGGG, AGGGGCACGTGGAGAT

Relative binding free energy, -0.01 kcal/mol:
GGAGACACGTGTTTTA, GAGAGCACGTGTAGTG, CTGTACACGTGGGGAT, AGTAGCACGTGATTTA, ACTGGCACGTGGAGTG, GGGAGCACGTGTTGTA, TTTAACACGTGCAGGG

Relative binding free energy, -0.03 kcal/mol:
CTGGGCACGTGTTTTT, TAGAACACGTGTGGGA, CAAGGCACGTGTATTG

Relative binding free energy, -0.36 kcal/mol:
CGGAGCACGTGGGTCG

Relative binding free energy, 0.44 kcal/mol:
GGTATCACGTGAGGAG

Relative binding free energy, -0.14 kcal/mol:
GGTAGCACGTGCGGCA, TTGCGCACGTGCTGGA, AGGAACACGTGGGTGG

Relative binding free energy, 0.03 kcal/mol:
TTTGACACGTGTGACG, CATAGCACGTGGGAGA, AGTTGCACGTGGTAAT, TGAGGCACGTGTGTCT, TTGTACACGTGCCGTG

Relative binding free energy, -0.19 kcal/mol:
TTAGTCACGTGGGCAG

Relative binding free energy, 0.22 kcal/mol:
TTGTTCACGTGCATAG, GGTCTCACGTGTGTAG, AGTTTCACGTGGTTTA, ATTATCACGTGCGATG, CGTTGCACGTGAAAGG, ATTTTCACGTGATATT

Relative binding free energy, 0.35 kcal/mol:
TTATTCACGTGGAGTC, GGTTTCACGTGTTTCG

Relative binding free energy, 0.12 kcal/mol:
TCGGTCACGTGACGTT, GAATGCACGTGTCGGG, TGAAACACGTGATTGT, TTTGACACGTGCGAGA, CGTTACACGTGTAGGT

Relative binding free energy, 0.34 kcal/mol:
AGCTTCACGTGTAAGG, GAGTACACGTGGATAT

Relative binding free energy, 0.49 kcal/mol:
GTTTTCACGTGTTAAC

Relative binding free energy, 0.14 kcal/mol:
AAAGGCACGTGAGGGC, GGTTTCACGTGGCTAT, GTCAGCACGTGAGTGG, GTTGACACGTGGAAGT

Relative binding free energy, 0.19 kcal/mol:
TGGGTCACGTGTCCGA, TTGATCACGTGTCGGC, CTTATCACGTGAGGTA
